Screen size: about 340,000 compounds; about 6,900 (2%) were called active. Rule as the data show it: active = inhibition above about 30%; inactive = below that, where a call was filed. This is a selection; strong and weak results do not stand in their true shares. Where no call is shown, the source filed none.

The target of the test is D(2) dopamine receptor (Homo sapiens) (UniProt P14416). As to the kind of experiment: HTS Assay for Allosteric Antagonists of the Human D2 Dopamine Receptor: Primary Screen for Antagonists. Also: 0% is about no effect. The settings on record: HEK293 TREx D2 cells, calcium flux, dopamine EC80; at 10 µM; stronger effect = higher value. The gist of the method: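 Dopamine at EC80 is the agonist stimulus; test compounds precede it by 180 s. Calcium flux read kinetically in a force-coupled, inducible HEK293 T-REx D2 cell line.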
Sequence of UniProt P14416 (P14416 whole entry, looked up): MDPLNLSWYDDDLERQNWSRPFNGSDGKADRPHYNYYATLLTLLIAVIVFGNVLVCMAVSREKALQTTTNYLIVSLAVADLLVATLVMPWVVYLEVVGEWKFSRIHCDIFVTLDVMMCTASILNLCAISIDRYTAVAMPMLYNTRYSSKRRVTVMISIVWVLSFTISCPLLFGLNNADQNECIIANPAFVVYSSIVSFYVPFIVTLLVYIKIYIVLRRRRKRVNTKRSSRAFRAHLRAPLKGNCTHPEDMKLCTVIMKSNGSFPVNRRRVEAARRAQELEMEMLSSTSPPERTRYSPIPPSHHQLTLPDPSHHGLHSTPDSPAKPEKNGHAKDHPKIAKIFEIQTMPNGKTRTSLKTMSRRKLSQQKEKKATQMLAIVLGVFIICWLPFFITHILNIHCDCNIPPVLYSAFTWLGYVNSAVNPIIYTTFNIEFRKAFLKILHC
(In general: A change in cytosolic calcium serves as a functional read-out for many receptors and channels.)
Take `CC1CCN(c2csc3ccc(F)cc3c2=O)CC1`: the inhibition is -3.08%. To `COC(=O)c1cc(S(=O)(=O)N2CCN(c3cc(Cl)ccc3C)CC2)c[nH]1` belongs 17.9%; to `CC1=C(C(N)=O)C(c2ccccc2F)n2nc(-c3ccc(Cl)cc3)nc2N1` (configuration not stated), 0.0331%. With `Cc1ccc(CNC(=O)Cn2cc3c(n2)-c2c(oc(C(=O)N4CCOCC4)c2C)CC3)cc1` the figure was 2.52%; with `Cc1cc(C)c2oc(C(=O)Nc3c(C(=O)c4ccccc4)oc4ccccc34)cc(=O)c2c1`, -11%. To `COc1ccccc1CNc1ncnc2c1c(-c1ccccc1)cn2-c1ccc(Br)cc1` belongs -6.26%; to `O=c1cc(N2CCN(Cc3ccccc3)CC2)[nH]c(=O)n1-c1ccc(Br)cc1`, active: 38.2%. With `CCN(CC)c1ccc(NC(=O)Cn2c3ncccc3c(=O)n2-c2ccccc2)c(C)c1`, the inhibition was 1.17%. With `COc1cc2c(=O)c(C(=O)c3ccc(F)cc3)cn(Cc3cccc(F)c3)c2cc1OC`, the inhibition worked out at 18.9%. To `Cc1ccc(C(=O)NCCC(C)C)cc1NC(=O)c1nsc2ccccc12` belongs 6.55%; to `CCOc1ccc(-c2nc(C(N)=O)c3c(n2)n(-c2ccc4c(c2)OCO4)c(=O)n3CC)cc1`, 8.93%. To `O=C(CN1CCN(Cc2ccc(F)cc2Cl)C1=O)NCCc1ccc(Cl)cc1` belongs 12.4%.

With `O=C1CN(C(=O)c2ccc(S(=O)(=O)N3CCCC3)cc2)C(c2ccccc2)c2cc(Cl)ccc2N1` (configuration not stated), the inhibition is -3.77%. As for `CCOc1ccc(C(=O)Nc2ccc3oc(-c4cccc5ccccc45)nc3c2)cc1`, the inhibition is -5.85%. To `Cc1ccc(C(=O)c2cn(CC(=O)NCc3ccccc3)c3nc(C)ccc3c2=O)cc1` belongs 7.85%; to `COc1ccc(OC)c(NC(=O)N2CC(C)Oc3ccc(C)cc32)c1` (configuration not stated), 16.3%; to `Cc1ccc(O)c(Nc2nc3ccccc3c3nncn23)c1`, -0.48%. To `COc1cccc(C(=O)Nc2ccc3nc4n(c(=O)c3c2)CCCCC4)c1` belongs 1.88%. To `COc1ccc(C(=O)Nc2nc(-c3nnn(-c4ccc(F)cc4F)c3C)ns2)cc1` belongs -6.73%; to `COc1ccc2c(c1)-c1ccccc1S(=O)(=O)N2C`, active: 33.7%. As for `O=C(Nc1c(C(=O)c2ccccc2)oc2ccccc12)c1ccc(F)cc1`, the inhibition was -7.5%.

As to `Cc1c(CN(C)C(=O)c2cc(-c3ccccc3)nc3ccc(Br)cc23)cnn1C`, the inhibition was -5.15%.

As to `COc1cc(CNCCSc2nnnn2C)ccc1OCc1ccccc1C`, the inhibition came to 14%. To `Cc1ccccc1CNC(=O)c1ccc(NC(=O)N2CCCCc3ccccc32)cc1` belongs 12.2%; to `CCCOc1ccc(C2=NC(c3ccncc3)=Nc3ccc(C)cc3N2)cc1`, -3.58%; to `Cc1ccc(-c2n[nH]c3c2C(c2ccccc2Cl)N(c2ccc(C(=O)O)cc2)C3=O)cc1` (configuration not stated), 7.51%. With `Cc1oc2ccc(NS(=O)(=O)c3ccc(F)cc3)cc2c1C(=O)O` the figure was 2.27%. To `CSc1ncc(Cl)c(C(=O)Nc2c(C(=O)Nc3cccc(C)c3)oc3ccccc23)n1` belongs 5.83%; to `Cc1ccccc1-c1noc(-c2ccc(N3CCC(C)CC3)c([N+](=O)[O-])c2)n1`, -10%. With `CCc1ccccc1NC(=O)Cn1c(=O)n(Cc2ccccc2)c(=O)c2c(C)c(C(=O)N(C)C)sc21`, the inhibition stood at 16.5%.

`CCOc1ccc(NC(=O)Cn2c(=O)cc(C)c3c(C)nn(C)c32)cc1`: the inhibition came out at 7.79%. To `Cc1csc2nc(-c3cccc(NS(C)(=O)=O)c3)cn12` belongs -6.32%; to `Cc1ccccc1CN1c2ccccc2-c2nc(SCC(=O)c3ccc(Cl)cc3)ncc2S1(=O)=O`, 3.34%; to `Cc1ccc(-c2nc(C)c(CCNC(=O)C(=O)Nc3cc(C)ccc3C)s2)cc1`, -3.2%. With `CC1CCN(S(=O)(=O)c2cc(C(=O)NCc3ccc(N(C)C)cc3)n(C)c2)CC1` the figure was 21.9%; with `O=C(CN1C(=O)CC(c2ccco2)Sc2ccccc21)Nc1cccc(C(F)(F)F)c1` (configuration not stated), -5.08%; with `CC(C)c1ccc(S(=O)(=O)c2cn(CC(=O)Nc3ccc(F)cc3)c3ccccc3c2=O)cc1`, 10.8%.

Regarding `S=C1NC2(CCCCC2)Cc2ccccc21`, the inhibition is active: 32%. To `CCc1ccc(CNC(=O)c2cnc(N3CCCCC3)c3ccccc23)cc1` belongs -20.7%; to `COc1ccc(S(=O)(=O)Nc2cccc(-c3ccc(N4CCCCCC4)nn3)c2)cc1F`, 1.81%; to `COc1ccc(CCNC(=O)C(=O)Nc2ccc(C)c(C)c2)cc1`, -7.05%. To `Brc1ccc(-c2cn3c(n2)SCC3)cc1` belongs active: 33.1%. On to `Cc1sc2ncn(CC(=O)N3CCN(c4ccccc4F)CC3)c(=O)c2c1S(=O)(=O)N1CCN(c2ncccn2)CC1`, for which the inhibition was found to be 8.72%. To `CCN(CC)C(=O)c1cc(S(=O)(=O)N2CCCCC2)c[nH]1` belongs active: 32.7%; to `O=c1c(-c2cc(-c3ccc(Cl)cc3)nc3c2COc2ccccc2-3)coc2ccccc12`, -3.76%; to `COc1ccccc1N1CCN(S(=O)(=O)c2c(C)[nH]c(C)c2C(=O)N2CCCC2)CC1`, active: 30.7%.

Turning to `CCC(=O)N1CCc2cc(Br)cc(S(=O)(=O)CCC(=O)NCCc3ccc(C)cc3)c21`, the inhibition worked out at 15.2%. With `C=CCOc1ccccc1CN(C(=O)CCl)c1ccc2c(c1)OCO2`, the inhibition is active: 33%. Turning to `Cc1cc(F)ccc1NC(=O)C(C(C)C)N1Cc2ccccc2C1=O` (configuration not stated), the inhibition was found to be 8.68%. With `COc1ccccc1NC(=O)c1nnn(-c2ccc(F)cc2)c1C` the figure was 17.5%; with `COc1ccc(CCNCc2c(-c3ccccc3)n(C)c3ccccc23)cc1`, active: 45.6%. Regarding `CCc1ccccc1OCCSc1nc(-c2cccs2)nc2cc(=O)[nH]n12`, the inhibition was 2.86%.

`CCCCCn1c(NCc2ccco2)nc2ccccc21`: the inhibition is active: 34%.

For `COc1ccc(C(=O)N2CC(=O)Nc3ccc(C)cc3C2c2ccc(F)cc2)c(OC)c1` (configuration not stated), the inhibition was -5.07%. Take `CC(=O)Nc1ccc(S(=O)(=O)NC2=NCN(C(C)C)CN2)cc1`: the inhibition was -18.6%. With `COc1ccc(/C=C/C(=O)Nc2ccccc2C(=O)NCC(c2ccc(OC)cc2)N(C)C)cc1` (configuration not stated) the figure was active: 60.2%; with `O=c1[nH]c2ccc(NCc3ccc(-c4ccccc4F)o3)cc2[nH]1`, 15.3%. For the compound `Cc1ccc(C(C)C)c(OCC(=O)Nc2cccc(-c3nc4ncccc4o3)c2)c1`, the inhibition amounted to 4.24%.

Take `CCOc1ccc(NC(=O)N(Cc2ccc(CC)cc2)Cc2cn[nH]c2-c2ccc(OC)cc2)cc1`: the inhibition worked out at 9.43%.

On to `CCOc1ccc(-c2cc3c(=O)n(Cc4nc(-c5ccc(OC)cc5OC)oc4C)ccn3n2)cc1Cl`, for which the inhibition was -16.1%.

As to `COc1cccc(Oc2nc3c(c(=O)n(Cc4ccccc4Cl)c(=O)n3C)n2C)c1`, the inhibition was determined as 6.69%.

Consider `CCOc1ccc(C(=O)N2CCC(c3nc(-c4ccc(S(=O)(=O)N5CCCC5)cc4)no3)CC2)cc1`, for which the inhibition is 12.8%.

By inhibition is commonly meant the change of the read-out against control, counted positive when it falls.

(Values after PubChem BioAssay AID485344 (National Center for Advancing Translational Sciences (NCATS), 2010).)
